# The list shows a part of the results.
# Test system: T1, C. trachomatis L2/434/Bu expressing GFP (CTL2-GFP)
# T1 construct: L2/434/Bu GFP intracellular growth in HeLa cells
# Design: species or system HeLa; C. trachomatis total inclusion area by high-content imaging, normalised to DMSO
# Conditions: total inclusion area; 28.5 h, 10 µM; inhibitor
# Outline: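 Post-fluorescence-read fixation, DNA staining with Hoechst and high-content imaging; GFP inclusion area and number per well, and nuclei counts, used as proxies for bacterial growth and host viability.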
row,SMILES,% of control remaining
1,COc1cc(C2C(C(=O)c3ccc(C)o3)=C(O)C(=O)N2Cc2cccnc2)cc(OC)c1OC (stereo not drawn) [CBK264933],90.7952
2,O=C(NCC1(c2ccccc2)CCOCC1)c1ccno1 [CBK067408],44.3245
3,O=C(O)c1ccccc1NC(=S)NC(=O)c1ccccc1[N+](=O)[O-] [CBK264963],110.485
4,C=C(C)Cn1c(SCC(=O)O)nnc1-c1ccc([N+](=O)[O-])cc1 [CBK263159],102.283
5,CCN(CC)C(=O)C1C2CCC3(CC(=O)c4ccccc4O3)C21 (stereo not drawn) [CBK284923],56.7226
6,Cn1c(=O)[nH]c(=O)c2[nH]c(CN3CCN(Cc4ccccc4)CC3)nc21 [CBK269592],66.056
7,CS(=O)(=O)N(Cc1ccccc1)c1ccc(C(=O)Nc2ccc3c(c2)OCO3)cc1 [CBK033562],95.1457
8,O=C1CC2(CCN(S(=O)(=O)c3ccc(F)cc3)CC2)CN1 [CBK283353],106.907
9,CC(=O)Cn1c(CN2CCOCC2)nc2c1c(=O)n(C)c(=O)n2C [CBK269508],96.0299
10,Cc1csc(C2CN(Cc3cn(C)c(=O)n(C)c3=O)CCO2)n1 (stereo not drawn) [CBK305475],83.6
11,CN1CCN(c2nc(Nc3ccc(Cl)cc3)nc(Oc3ccccc3)n2)CC1 [CBK004778],75.89
12,O=C(c1ccccc1)c1ccc2[nH]c(-c3ccc(NC(=O)c4ccccc4Cl)cc3)nc2c1 [CBK262706],68.0241
13,OC1(c2cccnc2F)CCN(Cc2ccccc2F)CC1 [CBK284372],81.2204
14,O=C(CN1CCCC1c1cccs1)Nc1cccc(C(=O)NC2CC2)c1 (stereo not drawn) [CBK305895],41.3886
15,CCN(CC(C)C#N)C(=O)c1cc2ccccc2oc1=O (stereo not drawn) [CBK305992],88.0058
16,O=C(O)COc1ccccc1/C=N/n1c(S)nnc1-c1ccc(Cl)cc1Cl [CBK264418],110.867
17,Cc1nnc(N2CCN(Cc3sccc3Cl)CC2)nc1C [CBK304075],49.8581
18,NC1=C(c2ccccc2)C(=O)CN1NC(=O)COc1ccccc1-c1ccccc1 [CBK269258],85.7091
19,COC(=O)C[C@@H](C)NC(=O)[C@](OC)(c1ccccc1)C(F)(F)F [CBK017864],112.034
20,Cc1ccc(-n2sc(=O)n(CCc3ccccc3)c2=O)cc1 [CBK113496],79.6037
21,CN1CCN(C(=O)c2ccccc2NC(=O)c2ccc(C(C)(C)C)cc2)CC1 [CBK270054],85.0496
22,Cc1nc(C)n(CC2CN(Cc3cn4ccccc4n3)CCO2)n1 (stereo not drawn) [CBK303999],74.9271
23,CC(=O)N1CCC(c2cc(-c3cccc(F)c3)n(C)n2)CC1 [CBK282097],83.2522
24,Oc1ccc(SCCCCN2CCCCC2)cc1 [CBK033676],71.2145
25,COc1ccc(-n2ncc(-c3ccc(Br)cc3F)n2)cc1OC [CBK112915],87.4688
26,OCc1ccccc1-c1cnc(N2CCOCC2)c2nccn12 [CBK091265],88.1458

row,SMILES,% of control remaining
1,CC(C)(Oc1ccc(Br)cc1)C(=O)NCCOc1ccccc1 [CBK268287],88.9165
2,O=C(Nc1cccc(I)c1)c1ccc(Oc2ccc(C(=O)Nc3cccc(I)c3)cc2)cc1 [CBK261201],96.4094
3,O=C(COc1ccc2c3c(c(=O)oc2c1)CCC3)Nc1ccc(S(=O)(=O)N2CCOCC2)cc1 [CBK265640],108.452
4,Oc1nc(CN2CCN(Cc3ccc4c(c3)OCO4)CC2)nc2ccccc12 [CBK074355],106.541
5,Cc1nnc(NCCN2CCOCC2)[nH]c1=O [CBK267912],85.2025
6,CC(=O)Oc1cc(Cl)ccc1C(=O)Nc1nnc(C(F)(F)F)s1 [CBK017569],103.898
7,Cc1ccc(OCC(=O)NC(=S)Nc2cc(-c3nc4ncccc4o3)ccc2Cl)cc1 [CBK265214],91.8917
8,CCc1c(C)sc2ncn(C3CCN(C(=O)C(C)C)CC3)c(=O)c12 [CBK282377],74.0035
9,CN1CCC(N(C)C(=O)Nc2ccc(C(N)=O)cc2)C1 (stereo not drawn) [CBK156015],104.153
10,NNC(=O)CSc1nnc2ccc(C(F)(F)F)cn12 [CBK006897],116.692
11,CC(=O)Nc1cccc(NC(=O)c2cccc(Cn3cc(Cl)cn3)c2)c1 [CBK265899],106.701
12,Cc1ccc(C(=O)O)cc1N1C(=O)c2ccc(S(=O)(=O)c3ccc(C(=O)O)cc3)cc2C1=O [CBK262747],105.137
13,COc1cccc(CN2CCC(Cc3ccccc3-c3ccc(C)cc3C)(C(=O)O)CC2)c1 [CBK286420],78.8304
14,Cc1nc2nc(SCc3cc(=O)n4ccccc4n3)nn2c(C)c1Cc1ccccc1 [CBK294460],81.5994
15,COc1cc(OC)cc(-c2nnc(SCc3cccc(C(=O)O)c3)[nH]2)c1 [CBK268736],73.9433
16,COc1ccc(-c2nc(NS(C)(=O)=O)cc3cccnc23)cc1C [CBK085677],106.349
17,COc1ccc(-c2cc(C(=O)NCCc3ccccn3)cnc2-c2cccc(C)c2)cc1 [CBK036730],102.809
18,CC(=O)Nc1ccc(CCOc2nccnc2/C=C/c2ccccc2)cc1 [CBK106880],104.152
19,CCOC(=O)c1cnc(SC(C)C(=O)N2CCc3ccccc32)nc1N (stereo not drawn) [CBK305007],41.177
20,CCn1cc(CN(CC(C)C)C(=O)c2c(C)nc3ccccn23)cn1 [CBK306862],30.3473
21,Cc1cc(-c2cn(C)nc2C2CCCCN2C(=O)C2CCCC2)on1 (stereo not drawn) [CBK283404],106.417
22,Cc1ccc(S(=O)(=O)NCCOc2ccc(Cl)cc2)cc1[N+](=O)[O-] [CBK263268],99.8208
23,CCN(CC)S(=O)(=O)c1c(C)[nH]c(=O)[nH]c1=O [CBK018721],105.813
24,Cc1ccc(SC(C)C(=O)Nn2cnnc2)cc1 (stereo not drawn) [CBK268570],105.547
25,COc1cc(C(CC(C)NC(C)(C)C)c2ccccc2)ccc1OCc1ccccc1 (stereo not drawn) [CBK017901],23.1009

# — publication PMC12040169 (PLOS Biology, 2025)
